# Test results reported in paper PMC4336329 (PLoS ONE, 2015).
# Hit rate of the full screen: of about 310,000 compounds, about 2,200 (0.71%) showed an effect of 50% or more. Effects have a minus sign here. The list shows a part of the results.
# Target: human ether-à-go-go-related gene (hERG) potassium channel (human, UniProt Q12809)
# Test: primary screen, population patch clamp on CHO cells stably expressing hERG
# Sequence of human ether-à-go-go-related gene (hERG) potassium channel (Q12809 whole entry, looked up): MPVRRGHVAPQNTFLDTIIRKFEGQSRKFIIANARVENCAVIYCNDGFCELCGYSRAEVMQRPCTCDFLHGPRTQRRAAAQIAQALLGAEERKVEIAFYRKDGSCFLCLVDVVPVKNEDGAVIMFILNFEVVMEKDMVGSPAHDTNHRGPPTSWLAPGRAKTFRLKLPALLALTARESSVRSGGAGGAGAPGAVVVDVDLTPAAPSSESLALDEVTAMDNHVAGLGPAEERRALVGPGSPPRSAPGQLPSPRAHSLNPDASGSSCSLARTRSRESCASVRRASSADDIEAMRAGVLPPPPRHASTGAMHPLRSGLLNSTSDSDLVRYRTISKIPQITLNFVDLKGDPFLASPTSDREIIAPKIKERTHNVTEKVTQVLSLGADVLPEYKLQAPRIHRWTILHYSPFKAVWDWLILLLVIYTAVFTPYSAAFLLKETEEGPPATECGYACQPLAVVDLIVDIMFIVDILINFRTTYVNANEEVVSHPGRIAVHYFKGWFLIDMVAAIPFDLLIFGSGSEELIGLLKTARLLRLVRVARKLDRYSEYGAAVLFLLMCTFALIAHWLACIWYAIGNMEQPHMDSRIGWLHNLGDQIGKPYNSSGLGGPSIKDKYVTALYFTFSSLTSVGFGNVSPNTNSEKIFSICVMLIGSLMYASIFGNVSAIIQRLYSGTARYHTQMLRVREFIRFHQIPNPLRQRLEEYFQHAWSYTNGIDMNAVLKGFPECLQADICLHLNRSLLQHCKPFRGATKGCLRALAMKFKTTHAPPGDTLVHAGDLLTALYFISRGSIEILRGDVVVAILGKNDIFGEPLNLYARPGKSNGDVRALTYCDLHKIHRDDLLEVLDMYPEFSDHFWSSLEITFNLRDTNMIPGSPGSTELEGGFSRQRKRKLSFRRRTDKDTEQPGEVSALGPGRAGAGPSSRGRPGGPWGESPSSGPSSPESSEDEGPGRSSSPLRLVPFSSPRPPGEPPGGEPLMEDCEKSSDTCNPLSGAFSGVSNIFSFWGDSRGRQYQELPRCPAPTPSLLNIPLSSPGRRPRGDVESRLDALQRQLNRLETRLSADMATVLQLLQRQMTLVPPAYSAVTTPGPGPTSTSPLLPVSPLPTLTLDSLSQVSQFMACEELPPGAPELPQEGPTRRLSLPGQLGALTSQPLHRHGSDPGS
row,SMILES,"hERG current change (%, negative = inhibition) at 1uM"
1,CCOc1ccc(/C=C2\SC(N3CCc4ccccc4C3)=NC2=O)cc1,13.8%
2,O=C(NC(=S)NC(=O)c1ccccc1F)c1ccccc1F,0.71%
3,CCOC(=O)/C(=N\Nc1ccccc1Cl)N(C)C1CCS(=O)(=O)C1 (stereo not drawn),-0.595%
4,CCOC(=O)CCc1c(C)nc(SCC(=O)O)c(C#N)c1C,14.1%
5,COc1ccc2c(c1)C(=O)N(c1ccccc1C)C(=O)C2(C)C,4.01%
6,CC(=C\c1ccccc1)/C=C1/SC(=S)N(CCC(=O)Nc2ccccn2)C1=O,6.53%
7,CCn1nc(C)cc1-c1nnc(Sc2ncc([N+](=O)[O-])s2)n1C,14.3%
8,COc1ccc(/C=N/NC(=O)COc2cccc3ccccc23)c(C(=O)O)c1OC,6%
9,COc1ccc(CC2(CO)CCN(CC3=Cc4cc(Cl)ccc4OC3)CC2)cc1,3.16%
10,Cc1nn(-c2ccc(N3CCOCC3)nn2)c(C)c1CCC(=O)NCc1ccccc1F,18.4%
11,Cc1cccc(N=CC=C2OC(C)(C)C(C)(C)O2)c1,11.2%
12,COc1cc(SC)ccc1C(=O)OCC(=O)NC(=O)NC(C)C,8.69%
13,O=C(COc1ccc2ccccc2c1Br)NCc1ccccn1,16.3%
14,CC(C)COc1ccc(C(=S)N2CCCC2)cc1,4.36%
15,Cc1cccc(C(=O)NNC(=O)c2ccc(NS(=O)(=O)c3cccs3)cc2)c1C,6.42%
16,C=CCn1c(SCC(=O)NC23CC4CC(CC(C4)C2)C3)nc2cc(C(=O)O)ccc2c1=O,8.87%
17,CN(c1ccccc1C(=O)Nc1ccc(S(=O)(=O)N2CCCCC2)cc1)S(C)(=O)=O,10.9%
18,O=C(OCc1nnc(-c2ccccc2)o1)c1cc(S(=O)(=O)N2CCOCC2)ccc1F,18.9%
19,O=C1CCN(CCc2ccccc2)CCN1[C@H](CSc1ccccc1)Cc1ccccc1,-44.6%

row,SMILES,"hERG current change (%, negative = inhibition) at 1uM"
1,OCCCNc1cc(-c2ccccc2)nc2cc(-c3ccc(F)cc3)nn12,13.2%
2,Cc1cccc(C(=O)Nc2ccccc2NC(=O)c2cccc(C)c2)c1,14.9%
3,CN(C)C(=O)CN1C(=O)C2CC=C(Cl)CC2C1=O (stereo not drawn),5.78%
4,O=C(Cn1ncc2c3ccccc3n(Cc3cccc(Cl)c3)c2c1=O)N1CCC2(CC1)OCCO2,-8.92%
5,COc1cccc(N2CC(C(=O)Nc3nnc(SCC(=O)N4CCOCC4)s3)CC2=O)c1 (stereo not drawn),13.2%
6,O=C(Nc1ccncc1)c1ccccc1F,17.2%
7,CC1c2ccsc2CCN1S(=O)(=O)c1ccccc1 (stereo not drawn),8%
8,COc1cc2c(cc1OC)CN(C(=O)Cn1ccccc1=O)CC2,-1.68%
9,COc1cccc(CNC(=O)CCCn2ncn3c(cc4occc43)c2=O)c1,-10.5%
10,C=C(C)C1CC=C(C)/C(=N\NC(=O)CNc2cccc3ccccc23)C1 (stereo not drawn),2.43%
11,COC(=O)c1c(-c2ccc(F)cc2)noc1N,-21.5%
12,Cc1c(C(=O)N2CCCCC2CCN2CCCC2=O)oc2c(F)cccc12 (stereo not drawn),7.69%
13,O=C(NCCc1ccccc1)Nc1ccc2c(c1)OCO2,14.8%
14,O=C(c1cnn2c(C(F)(F)F)cc(-c3cccs3)nc12)N1CCCC1,9.72%
15,CCCn1c(SCc2nc(-c3cccs3)no2)nnc1-c1ccncc1,4.52%
16,COc1ccc2[nH]c3c(=O)n(CCCCC(=O)NCCC(C)C)c(=S)[nH]c3c2c1,8.8%
17,CC(C)(C)c1ccc(-c2nnc(SC3CCOC3=O)n2Cc2ccccc2)cc1 (stereo not drawn),-13.4%
18,CN(CC(=O)Nc1ccccc1C(F)(F)F)C(=O)Cc1ccccc1F,15.7%
19,COCCCNC(=S)Nc1ccc(C)cc1,2.57%

row,SMILES,"hERG current change (%, negative = inhibition) at 1uM"
1,C/C(=C/c1ccccc1)C(=O)N1CCN(c2ccc(F)cc2)CC1,-18.6%
2,O=C(Nc1ccon1)c1ccccc1Cl,11%
3,O=C(CCNS(=O)(=O)c1ccc(Cl)cc1)N1CCN(c2ccccn2)CC1,-0.754%
4,CCC(=O)Oc1ccc(NC(=O)CSCc2ccccc2)cc1,8.66%
5,CCc1ccc(NC(=O)CN(N=Nc2nonc2C)c2nonc2C)cc1,11.8%
6,O=C(CSc1nc2[nH]ncc2c(=O)n1-c1ccc(Cl)c(Cl)c1)NCc1ccccc1Cl,6.16%
7,On1nnc2cc(C(F)(F)F)ccc21,8.9%
8,O=S(=O)(c1ccc(Br)cc1)n1c(Cc2ccccc2)nc2ccccc21,5.53%
9,CCOC(=O)C1=C(c2ccccc2)N=C2SCC(=O)N2C1c1cccc(OC)c1 (stereo not drawn),9.9%
10,C=CCn1c(SC(C)C(=O)NCc2ccc3c(c2)OCO3)nc2scc(-c3ccccc3)c2c1=O (stereo not drawn),-4.03%
11,O=C(CNC(=O)Cc1ccc(Cl)cc1)NCC(=O)N1CCCCC1,16.6%
12,Fc1cccc(NC(=S)Nc2ccc(Br)cc2)c1,6.17%
13,CCC1CN(C(=O)N2CCC(C(=O)NCc3ccc(C)o3)CC2)c2ccccc2O1 (stereo not drawn),4.5%
14,C=CCN1C(=O)c2ccc(C(=O)N(C)CC(=O)Nc3ccccc3Cl)cc2C1=O,4.92%
15,CCCN(CC(=O)Nc1ccc(Cl)cc1Cl)Cc1cc(=O)n2ccsc2n1,-6.86%
16,CC1CCCCC1NC(=O)C1CCN(S(=O)(=O)N2CCC3(CC2)OCCO3)CC1 (stereo not drawn),8.62%
17,COc1ccccc1NC(=S)NCCSc1ccc(C)cc1,-8.23%
18,Cl.O=C(OCCN1CCOCC1)C(c1ccccc1)c1ccccc1,12.1%
19,O=C(Nc1ccc(N2CCN(Cc3ccccc3)CC2)cc1)c1ccco1,7.73%
